Experimental data as given in PubChem BioAssay AID624417 (National Center for Advancing Translational Sciences (NCATS), 2012).
About 6,400 (1.6%) of roughly 410,000 compounds were called active. The shares of active, inactive and inconclusive entries below differ from those in the screen. Calls come from the whole dose curve; as a rule, active = well fitted inhibition curve with a large enough effect; inconclusive = small, poorly fitted or top-dose-only effect; inactive = no such curve, though single readings can be large or run the other way. Where the call is inconclusive, the potency comes from a doubtful curve fit.

target: Glucagon-like peptide 1 receptor (Homo sapiens) (UniProt P43220); assay: qHTS of GLP-1 Receptor Inverse Agonists (Inhibition Mode); details: HEK293 GLP-1R CRE-luciferase, luminescence, 24 h, GLP-1R form is constitutively active; activity change, negative = inhibition: at 38.3 µM (top of the series) unless noted; note: nearly all actives have a fitted effect of over 55% in size
Summary of the method: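 Readout was luciferase luminescence, measured 12 min after detection reagent at room temperature. Beforehand, GLP-1R reporter HEK293 cells had sat 12 h, then received compounds for 24 hr at 37 deg C.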
% is set by controls: 0 for no effect and ±100 for the full control effect; potency is the fitted concentration of half-maximal effect; tags give direction and shape of the fitted curve.

Sequence of UniProt P43220 (P43220 whole entry, looked up): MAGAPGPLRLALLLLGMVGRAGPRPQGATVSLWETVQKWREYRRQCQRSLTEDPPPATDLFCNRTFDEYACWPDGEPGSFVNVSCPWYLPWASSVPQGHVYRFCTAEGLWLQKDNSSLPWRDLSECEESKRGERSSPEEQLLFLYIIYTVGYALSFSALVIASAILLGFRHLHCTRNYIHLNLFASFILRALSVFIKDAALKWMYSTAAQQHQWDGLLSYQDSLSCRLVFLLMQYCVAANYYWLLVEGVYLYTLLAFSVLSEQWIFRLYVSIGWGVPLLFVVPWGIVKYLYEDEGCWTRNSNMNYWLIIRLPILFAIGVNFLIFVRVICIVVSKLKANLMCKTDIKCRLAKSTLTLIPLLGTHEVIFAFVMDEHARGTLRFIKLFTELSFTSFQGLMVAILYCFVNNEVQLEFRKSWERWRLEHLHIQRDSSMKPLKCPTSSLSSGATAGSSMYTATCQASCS

Compound	Potency	activity change, negative = inhibition
COc1cccc(-n2nc(C#N)c(Cl)cc2=O)c1	inconclusive: 28.2 µM [inhibitor, single point]	
CCOC(=O)c1c(C)[nH]c(C(=O)OCCOc2ccccc2C)c1C	inconclusive: 11.2 µM [inhibitor, single point]	
COc1cccc(OC)c1OCCCCN1CCC(Cc2ccccc2)CC1	inconclusive: 11.2 µM [inhibitor, partial curve, poor fit]	
Cc1cc(C)nc(SCc2nnc(SCC(=O)Nc3nc(-c4ccccc4)cs3)n2C)n1	inconclusive: 11.2 µM [inhibitor, partial curve, poor fit]	
CCN(CC(=O)NCc1ccc(F)cc1)C(=O)/C=C/c1cccs1		inactive: 10.3%
O=C(NCc1cccs1)C1Cc2c(-c3ccc(Cl)cc3)ccnc2O1 (stereo not drawn)	inconclusive: 1.41 µM [inhibitor, full curve]	
CCOc1ccc2c(c1)-c1c(ssc1=S)C(C)(C)N2C(=O)CSC1=NCCS1	inconclusive: 22.4 µM [inhibitor, single point]	
Cn1ccnc1SCC(=O)n1c2c(c3ccccc31)CCCC2	inconclusive: 14.1 µM [inhibitor, single point]	
CC(C)[C@H](NS(=O)(=O)c1ccccc1)C(=O)OCC(=O)N1N=C(c2ccc(Cl)cc2)CC1c1ccco1 (stereo partly drawn)	inconclusive: 28.2 µM [inhibitor, single point]	
N#Cc1c(SCc2cccc(Cl)c2)sc(C(=O)c2ccccc2)c1N	inconclusive: 7.94 µM [inhibitor, partial curve, poor fit]	
COc1ccc(C(=O)Nc2ccccc2C(=O)N2CCOCC2)cc1Br		inactive: -19.7%
CCOC(=O)c1c(C)[nH]c(C)c1S(=O)(=O)N1CCC(c2ccccc2)C1 (stereo not drawn)	inconclusive: 31.6 µM [inhibitor, single point]	
Cc1ccc(OCCn2c(Br)nc3c2c(=O)n(C)c(=O)n3C)cc1		inactive: 45.3%
Nc1ccccc1C(=O)/C=C/c1ccc2c(c1)OCO2	inconclusive: 28.2 µM [inhibitor, single point]	
Cc1ccc(C(=O)Nc2ccc(S(=O)(=O)N3CCOCC3)cc2)cc1C		inactive: -8.88%
Cc1nn2c(c1-c1ccccc1)N=C(c1ccco1)CC2c1ccccc1 (stereo not drawn)	inconclusive: 28.2 µM [inhibitor, single point]	
CCN(C(=S)Nc1cccc2ccccc12)c1ccccc1	inconclusive: 28.2 µM [inhibitor, single point]	
COc1ccc(NCC(O)COc2ccc(C(C)(C)C)cc2)cc1 (stereo not drawn)		inconclusive: -32.2% [inhibitor] [at 7.66 µM]
